Measured values published in paper PMC9742639, “Inhibition of glycogen synthase kinase-3-beta (GSK3β) blocks nucleocapsid phosphorylation and SARS-CoV-2 replication” (Molecular Biomedicine, 2022).

Test system: SARS-CoV-2
Assay: High-content screen / dose-response of SARS-CoV-2-infected Huh-7.5.1 cells (dsRNA, nucleocapsid)
Format: cell-based
Conditions: Huh-7.5.1 cells infected with SARS-CoV-2

SMILES	Selectivity Index (SI), CC50 over ED50
C[S+]([O-])c1ccc(-c2coc3ccc(-c4nnc(SCc5cccc(F)c5)o4)cc23)cc1 (centres unmarked) [P-7657632]	14
CSc1ccc(-c2coc3ccc(-c4nnc(N)o4)cc23)cc1Cl [P-9071942]	8
